According to PMC11255866 (Protein Science : A Publication of the Protein Society, 2024):

What was measured:
Assay in all cases: fluorescence polarisation
U1‐70K, full-length = U1‐70K, full-length (human, UniProt P08621)
[1] = molecular target: SRPK1‐phosphorylated U1‐70K (human, UniProt P08621, phosphorylated by SRPK1: 8 to 9 phosphate groups, sites not determined)
U1‐70K ∆238–247 = U1‐70K ∆238–247 (human, UniProt P08621, ∆238–247)
U1‐70K ∆257–266 = U1‐70K ∆257–266 (human, UniProt P08621, ∆257–266)
U1‐70K ∆366–375 = U1‐70K ∆366–375 (human, UniProt P08621, ∆366–375)

Row | Kd (U1‐70K, full-length) [nM] | Kd [1] [nM] | Kd (U1‐70K ∆238–247) [nM] | Kd (U1‐70K ∆257–266) [nM] | Kd (U1‐70K ∆366–375) [nM] | Binder
1 | 1600 ± 300 | – | – | – | – | Nonphosphorylated SRSF1, Alexa Fluor 488 labelled at T248C (natural protein, Alexa Fluor 488 at T248C) not shown
2 | 370 ± 40 | – | – | – | – | Hypo‐phosphorylated SRSF1 (phosphorylated by SRPK1), Alexa Fluor 488 labelled at T248C (natural protein, phosphorylated by SRPK1 on arginine–serine repeats (9–13 phosphate groups); Alexa Fluor 488 at T248C) not shown
3 | 110 ± 17 | 1500 ± 250 | 90 ± 12 | 270 ± 20 | 140 ± 11 | Hyper‐phosphorylated SRSF1 (phosphorylated by Clk1), Alexa Fluor 488 labelled at T248C (natural protein, phosphorylated by Clk1 on arginine–serine and serine–proline repeats (18–22 phosphate groups); Alexa Fluor 488 at T248C) not shown
